According to the supplement of paper PMC10126150:
Values marked as one replicate rest on one cluster of the flow cell; about a third of the high ones do not repeat.

System: ATP
Assay: switch fluorescence ratio, 500 uM ATP over buffer (Cy3 cluster intensity, sum of 5 cycles each) (fold (ratio)); higher = stronger signal-on switching upon ATP binding; sequences stand for … in TCGTCGGCAGCGTCAGATGTGTATAAGAGACAGTTTTTTTTTTTTTTTTTTTTTTTTT…TC
Conditions: aptamer strand: ATP DNA aptamer (quencher-CACCTGGGGGAGTATTGCGGAGGAAGG + anchor), 100 nM annealed; ATP concentration: 500 uM; one replicate
Procedure, shortened: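 Between each of five buffer/ATP cycles, the flow-cell was stripped with NaOH and re-annealed. Each cycle imaged Cy3-labelled switching-strand clusters, annealed to 100 nM quencher-labelled ATP aptamer on a modified Illumina MiSeq flow-cell, first in selection buffer and then after 15 min with 500 uM ATP at 22 °C. The fluorescence ratio is summed target-cycle over summed buffer-cycle Cy3 intensity per cluster, averaged per switch-domain sequence, with clusters outside 100-1000 RFU excluded.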
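Also: ATP exposure 15 min at 22 °C before imaging.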

CGACAGTCAG showed a switch fluorescence ratio of 1.03.
TTAAGTCTTG gave a switch fluorescence ratio of 1.
Work on TGGTGGTACT yielded a switch fluorescence ratio of 1.05.
Sequence TGATGGCACG has a switch fluorescence ratio of 0.985.
Work on ATTGGCGTCA yielded a switch fluorescence ratio of 0.979.
Work on CTAAAGAAAT yielded a switch fluorescence ratio of 1.06.
Sequence GCAAACAGC has a switch fluorescence ratio of 1.01.
ACGTCACGCT was tested, and the switch fluorescence ratio was 1.39.
AATTGAAAGA showed a switch fluorescence ratio of 0.977.
Work on AGGTAACGCT yielded a switch fluorescence ratio of 0.999.
GCGAAGGGAT showed a switch fluorescence ratio of 1.03.
For ATGAAACGC, the switch fluorescence ratio was 1.
TCCCCAGTCG showed a switch fluorescence ratio of 1.89.
GTGAGGTTAG was tested, and the switch fluorescence ratio was 0.962.
Work on GCTAGAGGC yielded a switch fluorescence ratio of 1.03.
TATCTTCTC showed a switch fluorescence ratio of 1.02.
With GGGAATATCG the switch fluorescence ratio was 1.06.
With GATTAAGAC the switch fluorescence ratio was 0.997.
In the case of GAACTACTGG, the switch fluorescence ratio is reported as 1.07.
Work on CCCATTGAAG yielded a switch fluorescence ratio of 1.02.
In the case of GTCGTATATG, the switch fluorescence ratio is reported as 0.971.
ATGTGCAAAC gave a switch fluorescence ratio of 1.25.
AGGGCGGAGG was tested, and the switch fluorescence ratio was 0.981.
In the case of TTTCCTTAGA, the switch fluorescence ratio is reported as 0.995.
AGATCTTCTC showed a switch fluorescence ratio of 0.985.
Work on ACCGTTGTTT yielded a switch fluorescence ratio of 0.957.
TCGTCACCTA gave a switch fluorescence ratio of 1.04.
CATTGCTCGG gave a switch fluorescence ratio of 0.993.
With GGCGGTCGTC the switch fluorescence ratio was 0.978.
ACACAG gave a switch fluorescence ratio of 1.03.
GAACCGCGTT showed a switch fluorescence ratio of 1.01.
With ATTCCCTAGT the switch fluorescence ratio was 1.
Work on TATATCTGAG yielded a switch fluorescence ratio of 1.03.
CATGTAATCC showed a switch fluorescence ratio of 1.04.
For GAAGCTGTTG, the switch fluorescence ratio was 1.03.
CCCTGGTAGT was tested, and the switch fluorescence ratio was 1.14.
For GGGGAAAAAC, the switch fluorescence ratio was 1.02.
TCTCTTTTCG was tested, and the switch fluorescence ratio was 0.993.
AGTTGATCGG gave a switch fluorescence ratio of 1.01.
GTGTATTCGT gave a switch fluorescence ratio of 0.996.
GTCGAAGCGG showed a switch fluorescence ratio of 1.
With AGTGACGGTG the switch fluorescence ratio was 0.996.
For GCTGTACAGC, the switch fluorescence ratio was 0.922.
With GATAGAGTAT the switch fluorescence ratio was 1.
For AATCACGTAC, the switch fluorescence ratio was 1.75.
In the case of TAGATCGTGC, the switch fluorescence ratio is reported as 0.976.
For CCTGGGGCT, the switch fluorescence ratio was 1.
In the case of GTAGTGTAAG, the switch fluorescence ratio is reported as 0.997.
CAGACCTATT showed a switch fluorescence ratio of 1.03.
TAGATCTTG was tested, and the switch fluorescence ratio was 1.
GGTGGCTGTG gave a switch fluorescence ratio of 0.983.
AACCACCTTT showed a switch fluorescence ratio of 1.09.
For AGACAGTAGT, the switch fluorescence ratio was 1.04.
TCTGAAGGGT gave a switch fluorescence ratio of 1.02.
With GTGCATGCGC the switch fluorescence ratio was 1.
Work on GCAAACGGGT yielded a switch fluorescence ratio of 1.03.
CAAGGCACAA was tested, and the switch fluorescence ratio was 1.09.
Work on ACGGCGGCGT yielded a switch fluorescence ratio of 1.13.
Work on AAAAAGGCGG yielded a switch fluorescence ratio of 1.
Work on TTCTTTGGTG yielded a switch fluorescence ratio of 0.991.
Work on AGAATTCGGC yielded a switch fluorescence ratio of 1.
In the case of CAATGCCTGT, the switch fluorescence ratio is reported as 0.976.
CGCAAACCAA showed a switch fluorescence ratio of 1.29.
For TAATGCAAGT, the switch fluorescence ratio was 1.
ATTCAGTTTT showed a switch fluorescence ratio of 0.978.
In the case of GACAGTTTGG, the switch fluorescence ratio is reported as 1.48.
In the case of TACAGCCTTT, the switch fluorescence ratio is reported as 1.17.
Work on TATGCCAGCC yielded a switch fluorescence ratio of 1.07.
TTCGCTTCAG showed a switch fluorescence ratio of 0.987.
Sequence CTGGTGATCC has a switch fluorescence ratio of 0.976.
ATCATAGTTA showed a switch fluorescence ratio of 0.967.
Work on TCCTTGTGTA yielded a switch fluorescence ratio of 0.994.
For GAATAAACCC, the switch fluorescence ratio was 0.975.
GATTCGGACG was tested, and the switch fluorescence ratio was 0.985.
In the case of GCATGATTA, the switch fluorescence ratio is reported as 0.993.
Work on AATGCCGTAC yielded a switch fluorescence ratio of 1.03.
TACTGGAGTG showed a switch fluorescence ratio of 0.988.
Work on CTAGACACTG yielded a switch fluorescence ratio of 1.06.
For TATGAGAGC, the switch fluorescence ratio was 0.922.
For AACTTCAATA, the switch fluorescence ratio was 1.06.
With TTGGGAGGAA the switch fluorescence ratio was 1.01.
With TCACTTGCGG the switch fluorescence ratio was 0.947.
In the case of TTGGATGCAC, the switch fluorescence ratio is reported as 1.03.
Sequence CTTATAATCT has a switch fluorescence ratio of 0.983.
ATGAACTAGA gave a switch fluorescence ratio of 1.
Sequence TGAATATCCC has a switch fluorescence ratio of 1.03.
AGGAGTCCCG showed a switch fluorescence ratio of 1.06.
TATACTCGTT was tested, and the switch fluorescence ratio was 1.03.
AATACGTCGC was tested, and the switch fluorescence ratio was 1.08.
For GATTATACA, the switch fluorescence ratio was 1.02.
GGTCTCGAGC showed a switch fluorescence ratio of 1.
In the case of CTGTAACAAG, the switch fluorescence ratio is reported as 1.
TGTGATTCTC was tested, and the switch fluorescence ratio was 1.03.
For ACAAAAACGA, the switch fluorescence ratio was 1.38.
ATTATCTC gave a switch fluorescence ratio of 0.962.
ACCAATTTCG gave a switch fluorescence ratio of 1.02.
TACCCTACAG gave a switch fluorescence ratio of 1.22.
Sequence TGGAAAGGTG has a switch fluorescence ratio of 1.01.
GATGCTAATC was tested, and the switch fluorescence ratio was 1.03.
Work on CGACATGCGA yielded a switch fluorescence ratio of 1.16.
For ATCCATGTAA, the switch fluorescence ratio was 1.01.
TGAATGAGAG gave a switch fluorescence ratio of 1.06.
ACACCAAGCG showed a switch fluorescence ratio of 1.07.
In the case of TAATTTGCGG, the switch fluorescence ratio is reported as 1.11.
Work on TTCCCATGGT yielded a switch fluorescence ratio of 1.18.
With CATACTCCT the switch fluorescence ratio was 1.37.
For ATTTCCAAGG, the switch fluorescence ratio was 1.05.
AATAAAAGGT gave a switch fluorescence ratio of 0.986.
AAGTCTAAGA was tested, and the switch fluorescence ratio was 1.
TTGTAAGCGC was tested, and the switch fluorescence ratio was 0.927.
Sequence TTGCGGTGCC has a switch fluorescence ratio of 1.01.
ACTACCAGTA was tested, and the switch fluorescence ratio was 1.02.
CCTGCAGCTG showed a switch fluorescence ratio of 1.11.
Work on CCTAGCAGCA yielded a switch fluorescence ratio of 1.87.
AGTTTCGGTT gave a switch fluorescence ratio of 1.01.
Work on TCAGGAAGAA yielded a switch fluorescence ratio of 0.962.
ATTCTCGATG gave a switch fluorescence ratio of 0.985.
In the case of GATAATAGT, the switch fluorescence ratio is reported as 1.01.
In the case of TGCTGGAGGC, the switch fluorescence ratio is reported as 1.01.
For AGAATGCTGA, the switch fluorescence ratio was 0.982.
Sequence TACTTGACG has a switch fluorescence ratio of 1.02.
In the case of GAAAGGGTGC, the switch fluorescence ratio is reported as 1.1.
For GAGGAGGGG, the switch fluorescence ratio was 1.03.
With AAAGCCCAAA the switch fluorescence ratio was 1.01.
ATCCGTAGA gave a switch fluorescence ratio of 1.09.
Work on TCTCTGCGTA yielded a switch fluorescence ratio of 1.87.
For GGTCTCAGTC, the switch fluorescence ratio was 1.02.
For AATCGTTTCT, the switch fluorescence ratio was 1.04.
GGGCTAGTAG showed a switch fluorescence ratio of 1.
In the case of TGTTGAGGGT, the switch fluorescence ratio is reported as 0.982.
Sequence CGAGCAAACG has a switch fluorescence ratio of 1.21.
ATGGGATTAC was tested, and the switch fluorescence ratio was 1.04.
In the case of AGAAATTAGG, the switch fluorescence ratio is reported as 0.991.
TTATCAAGAT was tested, and the switch fluorescence ratio was 1.05.
GTATCTATTT gave a switch fluorescence ratio of 1.02.
Sequence TCTGGCAGTT has a switch fluorescence ratio of 1.02.
Sequence ATTCAAATTA has a switch fluorescence ratio of 1.05.
With GTGGGTATAA the switch fluorescence ratio was 1.05.
In the case of GAAGTTATAT, the switch fluorescence ratio is reported as 0.99.
Work on CGTAGCCAGT yielded a switch fluorescence ratio of 1.11.
In the case of GCAATTCGGG, the switch fluorescence ratio is reported as 1.38.
Work on CTGGTCAGGA yielded a switch fluorescence ratio of 0.994.
TCTTATTGTT gave a switch fluorescence ratio of 1.
AGTGCTGTG gave a switch fluorescence ratio of 0.99.
TAATAAGGAC showed a switch fluorescence ratio of 1.08.
In the case of TCATCTGGAA, the switch fluorescence ratio is reported as 2.28.
TTGTGTACCT gave a switch fluorescence ratio of 1.06.
For GGTCCTTCTT, the switch fluorescence ratio was 1.06.
For AAGGAGTCGA, the switch fluorescence ratio was 1.02.
TGAAGGTCTG showed a switch fluorescence ratio of 1.02.
GGCATTGGTA showed a switch fluorescence ratio of 0.984.
For ATTAGCTTAC, the switch fluorescence ratio was 2.22.
Sequence ATCGAGGGG has a switch fluorescence ratio of 0.965.
With TAAAATAAGA the switch fluorescence ratio was 1.02.
Sequence TATATCTTTA has a switch fluorescence ratio of 1.03.
Work on TCGGCACCC yielded a switch fluorescence ratio of 1.02.
CCATAGCG gave a switch fluorescence ratio of 1.59.
GCATAATACG was tested, and the switch fluorescence ratio was 1.31.
For TTAACACCTC, the switch fluorescence ratio was 1.05.
ACTGTAGATC showed a switch fluorescence ratio of 1.06.
In the case of GCGTCCCGGC, the switch fluorescence ratio is reported as 0.97.
Work on TATCCAGAAT yielded a switch fluorescence ratio of 1.07.
With CTTGATCGGG the switch fluorescence ratio was 1.05.
In the case of ACCGCGGTAA, the switch fluorescence ratio is reported as 0.981.
GGTAGCGTCA showed a switch fluorescence ratio of 1.
For GACGCTGTCT, the switch fluorescence ratio was 1.02.
ACGGCGATGT gave a switch fluorescence ratio of 1.04.
TCTGAACGAG showed a switch fluorescence ratio of 1.03.
With GACAGCGAAG the switch fluorescence ratio was 0.971.
TCAGCAGGGA was tested, and the switch fluorescence ratio was 1.06.
Work on GGCCAAGCGC yielded a switch fluorescence ratio of 0.984.
ATCTGGACGC gave a switch fluorescence ratio of 1.02.
Sequence CGCTATGGG has a switch fluorescence ratio of 1.03.
GTGAAAGAAC gave a switch fluorescence ratio of 0.982.
TGAGGCTCTG showed a switch fluorescence ratio of 0.993.
In the case of CAAGTACTCT, the switch fluorescence ratio is reported as 1.27.
For GTCCCGCTGT, the switch fluorescence ratio was 1.34.
GGTGAAAGA was tested, and the switch fluorescence ratio was 1.
Work on ATGACGGTGT yielded a switch fluorescence ratio of 0.981.
With TACGTGCAGG the switch fluorescence ratio was 1.
In the case of GCAGTTGCTT, the switch fluorescence ratio is reported as 1.01.
GATGCGGGTA showed a switch fluorescence ratio of 1.07.
TTGATACTCT gave a switch fluorescence ratio of 1.03.
AAGCAGCTTT gave a switch fluorescence ratio of 1.04.
Work on GTGGGTGAGA yielded a switch fluorescence ratio of 1.02.
ACGCTTCCAC gave a switch fluorescence ratio of 1.49.
CCGCCTCGCG was tested, and the switch fluorescence ratio was 1.02.
In the case of GGTCCCGGGC, the switch fluorescence ratio is reported as 0.979.
Sequence ATATAAGATT has a switch fluorescence ratio of 1.02.
CTACCTTTTG was tested, and the switch fluorescence ratio was 1.
ACAGACTTAA showed a switch fluorescence ratio of 1.04.
Sequence GAAAAGCTTA has a switch fluorescence ratio of 0.99.
Work on TCCTACGTCT yielded a switch fluorescence ratio of 1.2.
TTACAGACCC gave a switch fluorescence ratio of 1.14.
Sequence CGAGAGTGTA has a switch fluorescence ratio of 1.02.
Work on AGAAAGTTTC yielded a switch fluorescence ratio of 0.979.
With CGAACGAGG the switch fluorescence ratio was 1.01.
TTCCTACGG showed a switch fluorescence ratio of 1.11.
AAGTTCATTA gave a switch fluorescence ratio of 1.
With GTGGAGACAA the switch fluorescence ratio was 0.967.
For GCCGGAAGGG, the switch fluorescence ratio was 0.961.
